What all share (assay): glycan array binding signal (z-score within array); higher = stronger binding
Conditions in all cases: glycan notation: IUPAC condensed, linker removed

For test [1], the target named is GlcNAc(b1-3)Gal(b1-4)GlcNAc(b1-3)Gal(b1-4)GlcNAc(b1-2)Man(a1-3)[GlcNAc(b1-3)Gal(b1-4)GlcNAc(b1-3)Gal(b1-4)GlcNAc(b1-2)Man(a1-6)]Man(b1-4)GlcNAc(b1-4)[Fuc(a1-6)]GlcNAc. The method, boiled down: (§1)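 The binding signal is a Z-score computed within each array. Data were drawn from 3228 arrays in the Consortium for Functional Glycomics database, restricted to those with a known protein sequence. Scores were averaged over arrays of the same protein sequence at different concentrations or buffers, and over linkers, and negative values can be taken as non-binding.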

The target in test [2] is GlcNAc(b1-3)Gal(b1-4)GlcNAc(b1-3)Gal(b1-4)GlcNAc(b1-2)[GlcNAc(b1-3)Gal(b1-4)GlcNAc(b1-3)Gal(b1-4)GlcNAc(b1-6)]Man(a1-6)[GlcNAc(b1-3)Gal(b1-4)GlcNAc(b1-3)Gal(b1-4)GlcNAc(b1-2)Man(a1-3)]Man(b1-4)GlcNAc(b1-4)[Fuc(a1-6)]GlcNAc. The method, boiled down: as §1
For test [3], the target named is GlcNAc(b1-3)Gal(b1-4)GlcNAc(b1-3)Gal(b1-4)GlcNAc(b1-3)Gal(b1-4)GlcNAc(b1-2)Man(a1-3)[GlcNAc(b1-3)Gal(b1-4)GlcNAc(b1-3)Gal(b1-4)GlcNAc(b1-3)Gal(b1-4)GlcNAc(b1-2)Man(a1-6)]Man(b1-4)GlcNAc(b1-4)GlcNAc. The gist of the method:
as §1

Test [4] has as its target GlcNAc(b1-3)Gal(b1-4)GlcNAc(b1-3)Gal(b1-4)GlcNAc(b1-3)Gal(b1-4)GlcNAc(b1-2)Man(a1-3)[GlcNAc(b1-3)Gal(b1-4)GlcNAc(b1-3)Gal(b1-4)GlcNAc(b1-3)Gal(b1-4)GlcNAc(b1-2)Man(a1-6)]Man(b1-4)GlcNAc(b1-4)[Fuc(a1-6)]GlcNAc. The gist of the method:
as §1

In test [5] the target is GlcNAc(b1-3)Gal(b1-4)GlcNAc(b1-3)Gal(b1-4)GlcNAc(b1-3)Gal(b1-4)GlcNAc(b1-2)[GlcNAc(b1-3)Gal(b1-4)GlcNAc(b1-3)Gal(b1-4)GlcNAc(b1-3)Gal(b1-4)GlcNAc(b1-6)]Man(a1-6)[GlcNAc(b1-3)Gal(b1-4)GlcNAc(b1-3)Gal(b1-4)GlcNAc(b1-3)Gal(b1-4)GlcNAc(b1-2)Man(a1-3)]Man(b1-4)GlcNAc(b1-4)[Fuc(a1-6)]GlcNAc. The gist of the method: as §1
Test [6] has as its target GlcNAc(b1-3)Gal(b1-4)GlcNAc(b1-3)Gal(b1-4)GlcNAc(b1-3)Gal(b1-4)GlcNAc(b1-3)Gal(b1-4)GlcNAc(b1-2)Man(a1-3)[GlcNAc(b1-3)Gal(b1-4)GlcNAc(b1-3)Gal(b1-4)GlcNAc(b1-3)Gal(b1-4)GlcNAc(b1-3)Gal(b1-4)GlcNAc(b1-2)Man(a1-6)]Man(b1-4)GlcNAc(b1-4)GlcNAc. The method, boiled down:
as §1

For test [7], the target named is GlcNAc(b1-3)Gal(b1-4)GlcNAc(b1-3)Gal(b1-4)GlcNAc(b1-3)Gal(b1-4)GlcNAc(b1-3)Gal(b1-4)GlcNAc(b1-2)Man(a1-3)[GlcNAc(b1-3)Gal(b1-4)GlcNAc(b1-3)Gal(b1-4)GlcNAc(b1-3)Gal(b1-4)GlcNAc(b1-3)Gal(b1-4)GlcNAc(b1-2)Man(a1-6)]Man(b1-4)GlcNAc(b1-4)[Fuc(a1-6)]GlcNAc. The gist of the method: as §1
Test [8] has as its target GlcNAc(b1-3)Gal(b1-4)GlcNAc(b1-3)Gal(b1-4)GlcNAc(b1-3)Gal(b1-4)GlcNAc(b1-3)Gal(b1-4)GlcNAc(b1-2)[GlcNAc(b1-3)Gal(b1-4)GlcNAc(b1-3)Gal(b1-4)GlcNAc(b1-3)Gal(b1-4)GlcNAc(b1-3)Gal(b1-4)GlcNAc(b1-6)]Man(a1-6)[GlcNAc(b1-3)Gal(b1-4)GlcNAc(b1-3)Gal(b1-4)GlcNAc(b1-3)Gal(b1-4)GlcNAc(b1-3)Gal(b1-4)GlcNAc(b1-2)Man(a1-3)]Man(b1-4)GlcNAc(b1-4)[Fuc(a1-6)]GlcNAc. The method, boiled down:
as §1

Test [9] addresses GlcNAc(b1-3)Gal(b1-4)GlcNAc(b1-3)Gal(b1-4)GlcNAc(b1-3)GalNAc. The gist of the method:
as §1

The target in test [10] is GlcNAc(b1-3)Gal(b1-4)GlcNAc(b1-3)GalNAc. The gist of the method: as §1
The target of test [11] is GlcNAc(b1-3)Gal(b1-4)GlcNAc(b1-3)[GlcNAc(b1-3)Gal(b1-4)GlcNAc(b1-3)]GalNAc. The method, boiled down:
as §1

Test [12] concerns the target GlcNAc(b1-3)Gal(b1-4)GlcNAc(b1-6)[Gal(b1-3)]GalNAc. The gist of the method:
as §1

Test [13] has as its target GlcNAc(b1-3)Gal(b1-4)GlcNAc(b1-6)[GlcNAc(b1-3)Gal(b1-3)]GalNAc. The method, boiled down:
as §1

The target of test [14] is GlcNAc(b1-3)Gal(b1-4)GlcNAc(b1-6)[GlcNAc(b1-3)]Gal(b1-4)GlcNAc. The gist of the method: as §1
Another test deals with GlcNAc(b1-3)GalNAc. The gist of the method:
as §1

A further test concerns the target GlcNAc(b1-3)Man. The method, boiled down: as §1
For test [15], the target named is GlcNAc(b1-3)[GlcNAc(b1-4)][GlcNAc(b1-6)]GlcNAc. The gist of the method:
as §1

The target of test [16] is GlcNAc(b1-3)[GlcNAc(b1-6)]Gal(b1-4)GlcNAc. The method, boiled down:
as §1

Test [17] has as its target GlcNAc(b1-3)[GlcNAc(b1-6)]GalNAc. The method, boiled down: as §1
In test [18] the target is GlcNAc(b1-4)Gal(b1-4)GlcNAc. The method, boiled down: as §1
The next test deals with GlcNAc(b1-4)GlcNAc. The gist of the method:
as §1

Test [19] addresses GlcNAc(b1-4)GlcNAc(b1-4)GlcNAc. The method, boiled down: as §1
Test [20] deals with GlcNAc(b1-4)GlcNAc(b1-4)GlcNAc(b1-4)GlcNAc(b1-4)GlcNAc. The method, boiled down:
as §1

The other results are listed elsewhere or left out.

B1: Pwp2 (Candida glabrata) (protein)
chain: MGSSHHHHHHSSGLVPRGSHMASKNPVELNNVCTFPNDYGRIPGFTVLVGRLGLLISASDYKELLRYPGAFLIATQDTMTTSPNFELTGFPFFTGLYGLTVFPLDLLVELRGYFVPPNSGQYTFTLSDSDDAAIIFLGNPSAFPCGDLQNWPKPSEEDITVTDHLFPSRTLYLIEGVAYPMRIAYYNGIGAGRLNAAFIDPSGTRHTNWEGYIWQYDPCSTCTYS
As to B1, the “glycan array binding signal (z-score)” value in test [1] was -0.598; in test [2], 3.24; in [3], 0.001; in [4], -0.307; in test [5], 5.45; in test [6] it was -0.549. Further, the “glycan array binding signal (z-score)” value in test [7] is -0.552; in test [8], 0.521; in test [9], -0.545; in [10] it was -0.267; in test [11] it was 0.5; in [12] it was 0.49. Moreover, the “glycan array binding signal (z-score)” value in test [13] was -0.518; in [14], -0.459; with GlcNAc(b1-3)GalNAc, -0.337; with GlcNAc(b1-3)Man it was -0.38; in test [15] it was -0.623; in test [16] it was -0.141. For the same molecule, the “glycan array binding signal (z-score)” value in test [17] is -0.005; in [18], -0.446; in the test with GlcNAc(b1-4)GlcNAc, -0.503; in [19], 0.164; in [20], -0.475.

For the origin of these results see the supplement of paper PMC8728848.
